From the supplement of paper PMC10126150
Sequences with one replicate were seen in a single cluster, so their values are uncertain.

What follows are sequences tested on ATP (assay: switch fluorescence ratio, 500 uM ATP over buffer (Cy3 cluster intensity, sum of 5 cycles each) (fold (ratio)); higher = stronger signal-on switching upon ATP binding; sequences stand for … in TCGTCGGCAGCGTCAGATGTGTATAAGAGACAGTTTTTTTTTTTTTTTTTTTTTTTTT…TC). Settings: aptamer strand: ATP DNA aptamer (quencher-CACCTGGGGGAGTATTGCGGAGGAAGG + anchor), 100 nM annealed; ATP concentration: 500 uM; one replicate.
Method in brief: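 Cy3-labelled switching-strand clusters on a modified Illumina MiSeq flow-cell were annealed to 100 nM quencher-labelled ATP aptamer, imaged in selection buffer, then imaged after 15 min with 500 uM ATP at 22 °C. Five buffer/ATP cycles ran, with NaOH stripping and re-annealing between them. The fluorescence ratio is summed target-cycle over summed buffer-cycle Cy3 intensity per cluster, averaged per switch-domain sequence. Clusters outside 100-1000 RFU were excluded.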
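Also: ATP exposure 15 min at 22 °C before imaging.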

Sequence | switch fluorescence ratio
GATGAAGTAA | 1.04
GATGACGGGT | 1.03
GATGAGACGG | 1.01
GATGAGAGAA | 0.982
GATGAGGGCA | 0.998
GATGAGTGGA | 1.04
GATGATAAGT | 1.04
GATGATATC | 1
GATGCAA | 1.13
GATGCAGTCA | 1.03
GATGCGACTG | 1.04
GATGCGAGGG | 0.971
GATGCGGGCC | 1.03
GATGCGGGTA | 1.07
GATGCGTATT | 0.975
GATGCTAATC | 1.03
GATGGAACAG | 1.01
GATGGAAGGA | 1.03
GATGGCACTT | 0.996
GATGGCCAGT | 1.14
GATGGCCGGG | 0.949
GATGGTATGC | 0.992
GATGGTCTAT | 0.997
GATGGTTCCG | 0.979
GATGGTTGCC | 0.99

Sequence | switch fluorescence ratio
GATGTATATC | 0.987
GATGTATCGC | 1.02
GATGTCATTG | 0.989
GATGTCTTTA | 0.964
GATGTGGAGC | 1.04
GATGTTACTC | 1.12
GATGTTATAC | 1.54
GATGTTATG | 0.97
GATGTTATTG | 0.965
GATGTTGTCT | 1.06
GATTAACATT | 1.05
GATTAAGAC | 0.997
GATTAATCGC | 1.01
GATTACAAGA | 1.03
GATTACCTTT | 1.02
GATTATACA | 1.02
GATTATCTAA | 1.02
GATTATGTGA | 1.03
GATTCAACTT | 0.984
GATTCAAGTA | 0.94
GATTCAGAAC | 0.959
GATTCAGACG | 1.02
GATTCAGATG | 0.924
GATTCATTT | 1
GATTCCGAC | 1.8

Sequence | switch fluorescence ratio
GATTCGGACG | 0.985
GATTCGTTGG | 1
GATTCTCGCT | 0.986
GATTCTCTCG | 1.01
GATTCTTTTG | 0.971
GATTGAAGAG | 0.972
GATTGAGCCG | 1.01
GATTGATTAC | 1.05
GATTGCTTGT | 1
GATTGGATGG | 0.97
GATTGGGGT | 0.986
GATTGGTTTT | 1.02
GATTGTAACA | 0.992
GATTTAGTG | 1.02
GATTTATCGG | 1.03
GATTTATCGT | 1.01
GATTTATGCG | 0.977
GATTTCACGA | 1.03
GATTTCGAAG | 1.01
GATTTTAGGT | 1.03
GCAAAAGTCG | 0.986
GCAAAATGCA | 0.979
GCAAAATGCG | 0.989
GCAAACAGC | 1.01
GCAAACCAGG | 2

Sequence | switch fluorescence ratio
GCAAACCTAT | 1.02
GCAAACGGGT | 1.03
GCAAACGTCA | 1
GCAAAGATT | 0.98
GCAAAGCGGT | 0.992
GCAACAAATA | 1.01
GCAACAACAT | 1.02
GCAACAATGA | 0.995
GCAACACAAG | 1.05
GCAACCACTT | 1.09
GCAACCCGTG | 1.15
GCAACCTCGG | 1.02
GCAACTAGTC | 1.19
GCAACTCCAC | 1.96
GCAACTCTTT | 1.01
GCAAGAAACC | 1.02
GCAAGAACGT | 1.02
GCAAGAAGAG | 0.986
GCAAGAAGTG | 0.991
GCAAGAGTAA | 0.971
GCAAGCATGT | 0.991
GCAAGCTTAA | 1
GCAAGGAAAA | 1.03
GCAAGGCTTC | 1.03
GCAAGTCGGT | 1.01
